Results taken from PubChem BioAssay AID308 (DTP/NCI, 2004).
Toxic doses and inconclusive results are not listed. The source holds more than one record for some entries. This is not the full list of results. The source may hold further records. The records of an entry are repeated measurements (runs, samples, wells, individuals or studies).

Test system: BDF1 mice, L1210 6-MP/6-TG resistant leukemia ip, survival T/C
Experiment: NCI In Vivo Anticancer Drug Screen. Data for tumor model L1210 Leukemia resistant to 6-MP and 6-Thioguanine; NSC 755, NSC 752 (intraperitoneal) in B6D2F1 (BDF1) mice
Conditions: endpoint: mean survival time, higher = longer survival
Method: The antitumor activity of compounds was measured in mice bearing transplantable tumors. Survival or tumor size were measured and the results are expressed as the measurement made in the treated group (T) divided by the measurement made in the vehicle treated control group (C). The tumor model used in this assay is L1210 Leukemia resistant to 6-MP and 6-Thioguanine; NSC 755, NSC 752 (intraperitoneal) in B6D2F1 (BDF1) mice

Row | Compound | T/C (dose: 15.0 mg/kg/injection, schedule: Q01DX Z (ip), vehicle: carboxymethylcellulose (CMC)) | T/C (dose: 0.5 mg/kg/injection, schedule: Q01DX015 (ip), vehicle: saline)
1 | CC(=O)Nc1ccc2nc3ccc(NC(C)=O)cc3[n+](-c3ccccc3)c2c1 | 109 % of control and 162 % of control | –
2 | O=NN(CCCl)C(=O)NCCCl | – | 103 % of control, 108 % of control, 152 % of control
